# Data as given in the supplement of paper PMC8728848.
# This is one part of the list.
# B1: RVL (Remusatia vivipara), B5LYJ9 (protein)
# chain: MAKLLLFLLPAILGLLVPRSAVALGTNYLLSGQTLDTEGHLKNGDFDLVMQDDCNLVLYNGNWQSNTANNGRDCKLTLTDYGELVIKNGDGSTVWKSGAQSVKGNYAAVVHPDGRLVVLGPSVFKIDPWVRGLNSLRFRNIPFTNNLLFSGQVLYGDGRLTAKNHQLVMQGDCNLVLYGGKYGWQSNTHGNGEHCFLRLNHKGELIIKDDDFKTIWSSRSSSKQGEYVLILQDDGFGVIYGPAIFETSSKRSIAAS
# What was measured:
# Assay in all cases: glycan array binding signal (z-score within array); higher = stronger binding
# Conditions in all cases: glycan notation: IUPAC condensed, linker removed
# [1] = biological target: GlcNAc(a1-4)Gal(b1-4)GlcNAc(b1-3)Gal(b1-4)Glc
# Summary of the method: (§1)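 From the Consortium for Functional Glycomics database, 3228 arrays were curated, keeping only those whose protein sequence was available. Binding is given as a within-array Z-score averaged across arrays sharing a protein sequence and across linkers. Negative Z-scores can be read as non-binding.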
# [2] = biological target: GlcNAc(a1-4)Gal(b1-4)GlcNAc(b1-3)Gal(b1-4)GlcNAc
# Summary of the method: as §1
# [3] = biological target: GlcNAc(a1-4)Gal(b1-4)GlcNAc(b1-3)Gal(b1-4)GlcNAc(b1-3)Gal(b1-4)GlcNAc
# Summary of the method: as §1
# [4] = biological target: GlcNAc(a1-4)Gal(b1-4)GlcNAc(b1-3)Gal(b1-4)[Fuc(a1-3)]GlcNAc(b1-3)Gal(b1-4)[Fuc(a1-3)]GlcNAc
# Summary of the method: as §1
# [5] = biological target: GlcNAc(a1-6)Gal(b1-4)GlcNAc
# Summary of the method: as §1
# [6] = biological target: GlcNAc(b1-2)Gal(b1-3)GalNAc
# Summary of the method: as §1
# [7] = biological target: GlcNAc(b1-2)Man(a1-3)[GlcNAc(b1-2)Man(a1-6)]Man(b1-4)GlcNAc(b1-4)GlcNAc
# Summary of the method: as §1
# [8] = biological target: GlcNAc(b1-2)Man(a1-3)[GlcNAc(b1-2)Man(a1-6)]Man(b1-4)GlcNAc(b1-4)[Fuc(a1-6)]GlcNAc
# Summary of the method: as §1
# [9] = biological target: GlcNAc(b1-2)Man(a1-3)[GlcNAc(b1-4)][GlcNAc(b1-2)Man(a1-6)]Man(b1-4)GlcNAc(b1-4)GlcNAc
# Summary of the method: as §1
# [10] = biological target: GlcNAc(b1-2)[GlcNAc(b1-4)]Man(a1-3)[GlcNAc(b1-2)Man(a1-6)]Man(b1-4)GlcNAc(b1-4)GlcNAc
# Summary of the method: as §1
# [11] = biological target: GlcNAc(b1-2)[GlcNAc(b1-4)]Man(a1-3)[GlcNAc(b1-4)][GlcNAc(b1-2)Man(a1-6)]Man(b1-4)GlcNAc(b1-4)GlcNAc
# Summary of the method: as §1
# [12] = biological target: GlcNAc(b1-2)[GlcNAc(b1-4)]Man(a1-3)[GlcNAc(b1-4)][GlcNAc(b1-2)[GlcNAc(b1-6)]Man(a1-6)]Man(b1-4)GlcNAc(b1-4)GlcNAc
# Summary of the method: as §1
# [13] = biological target: GlcNAc(b1-2)[GlcNAc(b1-4)]Man(a1-3)[GlcNAc(b1-4)][GlcNAc(b1-2)[GlcNAc(b1-6)]Man(a1-6)]Man(b1-4)GlcNAc(b1-4)[Fuc(a1-6)]GlcNAc
# Summary of the method: as §1
# [14] = biological target: GlcNAc(b1-2)[GlcNAc(b1-6)]Man(a1-6)[GlcNAc(b1-2)Man(a1-3)]Man(b1-4)GlcNAc(b1-4)GlcNAc
# Summary of the method: as §1
# [15] = biological target: GlcNAc(b1-2)[GlcNAc(b1-6)]Man(a1-6)[GlcNAc(b1-2)Man(a1-3)]Man(b1-4)GlcNAc(b1-4)[Fuc(a1-6)]GlcNAc
# Summary of the method: as §1
# [16] = biological target: GlcNAc(b1-2)[GlcNAc(b1-6)]Man(a1-6)[GlcNAc(b1-2)Man(a1-3)][GlcNAc(b1-4)]Man(b1-4)GlcNAc(b1-4)GlcNAc
# Summary of the method: as §1
# GlcNAc(b1-3)Gal = biological target: GlcNAc(b1-3)Gal
# Summary of the method: as §1
# [17] = biological target: GlcNAc(b1-3)Gal(b1-3)GalNAc
# Summary of the method: as §1
# GlcNAc(b1-3)Gal(b1-4)Glc = biological target: GlcNAc(b1-3)Gal(b1-4)Glc
# Summary of the method: as §1
# [18] = biological target: GlcNAc(b1-3)Gal(b1-4)GlcNAc
# Summary of the method: as §1
# [19] = biological target: GlcNAc(b1-3)Gal(b1-4)GlcNAc(b1-3)Gal(b1-4)GlcNAc
# Summary of the method: as §1
# GlcNAc(b1-3)GalNAc = biological target: GlcNAc(b1-3)GalNAc
# Summary of the method: as §1
# GlcNAc(b1-3)Man = biological target: GlcNAc(b1-3)Man
# Summary of the method: as §1
# [20] = biological target: GlcNAc(b1-3)[GlcNAc(b1-4)][GlcNAc(b1-6)]GlcNAc
# Summary of the method: as §1
# [21] = biological target: GlcNAc(b1-3)[GlcNAc(b1-6)]Gal(b1-4)GlcNAc
# Summary of the method: as §1
# [22] = biological target: GlcNAc(b1-3)[GlcNAc(b1-6)]GalNAc
# Summary of the method: as §1
# [23] = biological target: GlcNAc(b1-4)Gal(b1-4)GlcNAc
# Summary of the method: as §1
# GlcNAc(b1-4)GlcNAc = biological target: GlcNAc(b1-4)GlcNAc
# Summary of the method: as §1
# [24] = biological target: GlcNAc(b1-4)GlcNAc(b1-4)GlcNAc
# Summary of the method: as §1
# [25] = biological target: GlcNAc(b1-4)GlcNAc(b1-4)GlcNAc(b1-4)GlcNAc(b1-4)GlcNAc
# Summary of the method: as §1
# [26] = biological target: GlcNAc(b1-4)GlcNAc(b1-4)GlcNAc(b1-4)GlcNAc(b1-4)GlcNAc(b1-4)GlcNAc
# Summary of the method: as §1
# [27] = biological target: GlcNAc(b1-4)[GlcNAc(b1-6)]GalNAc
# Summary of the method: as §1
# [28] = biological target: GlcNAc(b1-6)Gal(b1-4)GlcNAc
# Summary of the method: as §1
# GlcNAc(b1-6)GalNAc = biological target: GlcNAc(b1-6)GalNAc
# Summary of the method: as §1
# GlcNAc3Prop(b1-4)GlcNAc = biological target: GlcNAc3Prop(b1-4)GlcNAc
# Summary of the method: as §1
# [29] = biological target: GlcNAc6S(b1-3)Gal(b1-4)GlcNAc
# Summary of the method: as §1
# Kdn(a2-3)Gal(b1-3)GalNAc = biological target: Kdn(a2-3)Gal(b1-3)GalNAc
# Summary of the method: as §1
# Kdn(a2-3)Gal(b1-3)GlcNAc = biological target: Kdn(a2-3)Gal(b1-3)GlcNAc
# Summary of the method: as §1
# Kdn(a2-3)Gal(b1-4)Glc = biological target: Kdn(a2-3)Gal(b1-4)Glc
# Summary of the method: as §1
# Kdn(a2-3)Gal(b1-4)GlcNAc = biological target: Kdn(a2-3)Gal(b1-4)GlcNAc
# Summary of the method: as §1
# [30] = biological target: Kdn(a2-3)Gal(b1-4)[Fuc(a1-3)]GlcNAc
# Summary of the method: as §1
# Kdn(a2-6)Gal(b1-4)GlcNAc = biological target: Kdn(a2-6)Gal(b1-4)GlcNAc
# Summary of the method: as §1
# [31] = biological target: Man(a1-2)Man(a1-2)Man(a1-3)Man
# Summary of the method: as §1
# [32] = biological target: Man(a1-2)Man(a1-2)Man(a1-6)[Man(a1-3)]Man
# Summary of the method: as §1
# Man(a1-2)Man(a1-3)Man = biological target: Man(a1-2)Man(a1-3)Man
# Summary of the method: as §1
binder,measurement,setting,value
B1,glycan array binding signal (z-score),[1],-0.138
same,glycan array binding signal (z-score),[2],-0.035
same,glycan array binding signal (z-score),[3],0.124
same,glycan array binding signal (z-score),[4],0.3
same,glycan array binding signal (z-score),[5],0.014
same,glycan array binding signal (z-score),[6],-0.05
same,glycan array binding signal (z-score),[7],0.913
same,glycan array binding signal (z-score),[8],0.93
same,glycan array binding signal (z-score),[9],-0.244
same,glycan array binding signal (z-score),[10],2.4
same,glycan array binding signal (z-score),[11],-0.163
same,glycan array binding signal (z-score),[12],-0.065
same,glycan array binding signal (z-score),[13],-0.254
same,glycan array binding signal (z-score),[14],0.436
same,glycan array binding signal (z-score),[15],0.635
same,glycan array binding signal (z-score),[16],-0.16
same,glycan array binding signal (z-score),GlcNAc(b1-3)Gal,-0.164
same,glycan array binding signal (z-score),[17],-0.187
same,glycan array binding signal (z-score),GlcNAc(b1-3)Gal(b1-4)Glc,-0.186
same,glycan array binding signal (z-score),[18],-0.145
same,glycan array binding signal (z-score),[19],-0.186
same,glycan array binding signal (z-score),GlcNAc(b1-3)GalNAc,-0.211
same,glycan array binding signal (z-score),GlcNAc(b1-3)Man,-0.227
same,glycan array binding signal (z-score),[20],0.019
same,glycan array binding signal (z-score),[21],0.084
same,glycan array binding signal (z-score),[22],-0.166
same,glycan array binding signal (z-score),[23],-0.178
same,glycan array binding signal (z-score),GlcNAc(b1-4)GlcNAc,-0.251
same,glycan array binding signal (z-score),[24],0.037
same,glycan array binding signal (z-score),[25],-0.343
same,glycan array binding signal (z-score),[26],-0.182
same,glycan array binding signal (z-score),[27],-0.254
same,glycan array binding signal (z-score),[28],-0.145
same,glycan array binding signal (z-score),GlcNAc(b1-6)GalNAc,-0.05
same,glycan array binding signal (z-score),GlcNAc3Prop(b1-4)GlcNAc,-0.202
same,glycan array binding signal (z-score),[29],-0.522
same,glycan array binding signal (z-score),Kdn(a2-3)Gal(b1-3)GalNAc,-0.142
same,glycan array binding signal (z-score),Kdn(a2-3)Gal(b1-3)GlcNAc,-0.206
same,glycan array binding signal (z-score),Kdn(a2-3)Gal(b1-4)Glc,-0.24
same,glycan array binding signal (z-score),Kdn(a2-3)Gal(b1-4)GlcNAc,-0.255
same,glycan array binding signal (z-score),[30],-0.042
same,glycan array binding signal (z-score),Kdn(a2-6)Gal(b1-4)GlcNAc,-0.104
same,glycan array binding signal (z-score),[31],-0.256
same,glycan array binding signal (z-score),[32],-0.056
same,glycan array binding signal (z-score),Man(a1-2)Man(a1-3)Man,-0.197
